The whole screen tested about 310,000 compounds, of which about 2,200 (0.71%) showed an effect of 50% or more. The effect is printed as a negative number. This is one part of the list.

For the assay, the target named is human ether-à-go-go-related gene (hERG) potassium channel (human, UniProt Q12809). In words: primary screen, population patch clamp on CHO cells stably expressing hERG.
human ether-à-go-go-related gene (hERG) potassium channel, sequence (Q12809 whole entry, looked up): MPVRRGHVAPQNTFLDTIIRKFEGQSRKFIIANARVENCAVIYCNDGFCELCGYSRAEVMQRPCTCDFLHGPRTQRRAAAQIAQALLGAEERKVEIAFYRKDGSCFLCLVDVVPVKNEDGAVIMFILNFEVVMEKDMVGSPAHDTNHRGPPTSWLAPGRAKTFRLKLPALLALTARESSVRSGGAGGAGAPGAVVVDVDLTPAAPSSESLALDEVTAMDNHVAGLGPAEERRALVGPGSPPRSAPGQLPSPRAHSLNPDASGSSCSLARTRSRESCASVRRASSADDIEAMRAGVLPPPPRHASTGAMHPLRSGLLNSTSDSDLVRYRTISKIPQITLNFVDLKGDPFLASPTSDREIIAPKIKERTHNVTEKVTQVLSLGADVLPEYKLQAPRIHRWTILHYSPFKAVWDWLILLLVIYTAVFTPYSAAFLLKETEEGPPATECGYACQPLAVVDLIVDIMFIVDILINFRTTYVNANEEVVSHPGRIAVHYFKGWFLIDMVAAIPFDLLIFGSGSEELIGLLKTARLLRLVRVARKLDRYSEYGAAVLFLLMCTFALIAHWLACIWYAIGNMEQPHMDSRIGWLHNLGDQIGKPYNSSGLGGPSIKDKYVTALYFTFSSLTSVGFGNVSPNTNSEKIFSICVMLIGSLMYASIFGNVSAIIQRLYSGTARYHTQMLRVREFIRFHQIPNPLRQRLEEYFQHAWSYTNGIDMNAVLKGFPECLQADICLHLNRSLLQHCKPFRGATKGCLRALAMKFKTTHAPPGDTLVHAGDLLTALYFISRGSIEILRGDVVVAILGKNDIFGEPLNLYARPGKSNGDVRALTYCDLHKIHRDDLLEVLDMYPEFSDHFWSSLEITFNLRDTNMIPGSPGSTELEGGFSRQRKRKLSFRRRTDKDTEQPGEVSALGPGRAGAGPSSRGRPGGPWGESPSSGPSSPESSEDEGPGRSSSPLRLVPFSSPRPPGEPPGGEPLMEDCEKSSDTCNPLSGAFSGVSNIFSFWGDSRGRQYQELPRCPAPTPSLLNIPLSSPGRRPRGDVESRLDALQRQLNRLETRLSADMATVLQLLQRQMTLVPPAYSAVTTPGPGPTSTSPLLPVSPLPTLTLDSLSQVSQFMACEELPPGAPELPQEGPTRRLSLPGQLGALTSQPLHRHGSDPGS
Regarding `COc1ccccc1NC(=O)COC(=O)c1cc(C)nc2ccccc12`, the “hERG current change (%, negative = inhibition) at 1uM” value is on record as 8.92%.

Take `CCc1ccc(NS(=O)(=O)c2ccc3c(c2)CCN3C(=O)CCC(=O)O)cc1`: the “hERG current change (%, negative = inhibition) at 1uM” value turned out to be 8.06%.

Turning to `CCCn1nnnc1NCc1cccc(OC)c1OCC`, the “hERG current change (%, negative = inhibition) at 1uM” value was determined as 4.19%.

Consider `CS(=O)(=O)O.S=C=Nc1cccc(C2(N3CCCCC3)CCCCC2)c1`, for which the “hERG current change (%, negative = inhibition) at 1uM” value stood at 2.09%.

In the case of `COc1ccc(CNC(=O)c2noc(C(C)C)c2[N+](=O)[O-])cc1`, the “hERG current change (%, negative = inhibition) at 1uM” value is listed as 0.486%.

As for `C/C(=N\NC(=O)CN1CCN(S(=O)(=O)c2ccc(C)cc2)CC1)c1ccncc1`, the “hERG current change (%, negative = inhibition) at 1uM” value is -77.6%.

`O=C(Cc1ccccc1)NNS(=O)(=O)c1ccccc1[N+](=O)[O-]`: the “hERG current change (%, negative = inhibition) at 1uM” value is given as 9.17%.

Regarding `OCc1n[nH]c(CO)n1`, the “hERG current change (%, negative = inhibition) at 1uM” value is given as -12.4%.

With `CCOc1ccc(S(=O)(=O)N2CCCCC2)cc1NC(=O)c1c(CC)noc1C`, the “hERG current change (%, negative = inhibition) at 1uM” value was determined as 7.63%.

For the molecule `Cc1ccc(NC2=CC(=O)OC(C)C2)cc1` (stereo not drawn), the “hERG current change (%, negative = inhibition) at 1uM” value is 12.2%.

`O=C(CCCN1C(=O)CCC1=O)Nc1cccc(C(F)(F)F)c1`: the “hERG current change (%, negative = inhibition) at 1uM” value was 3.51%.

Turning to `COc1cc(Cc2cc(N)nc(N)n2)cc(OC)c1OC`, the “hERG current change (%, negative = inhibition) at 1uM” value was 15.5%.

For `O=C(O)c1cnn2c1NC(c1ccc(F)cc1)CC2C(F)(F)F` (stereo not drawn), the “hERG current change (%, negative = inhibition) at 1uM” value was determined as 0.527%.

For the molecule `CCOP(=O)(OCC)C(NC(=O)c1ccccc1)=C(Cl)Cl`, the “hERG current change (%, negative = inhibition) at 1uM” value was found to be 5.7%.

Consider `O=C(COC(=O)CNC(=O)c1ccc(Cl)cc1)Nc1ncc(C(F)(F)F)cc1Cl`, for which the “hERG current change (%, negative = inhibition) at 1uM” value is recorded as 7.36%.

Regarding `COc1cccc(OC)c1C1=NC(C)(C)CO1`, the “hERG current change (%, negative = inhibition) at 1uM” value was found to be 13.6%.

Consider `COC(=O)c1cc(=O)n(CCc2ccc(OC)cc2)c(=Nc2ccc(F)c(Cl)c2)s1`, for which the “hERG current change (%, negative = inhibition) at 1uM” value is 1.69%.

Take `O=C(Nc1ccc2ncccc2c1)Nc1ccc2ncccc2c1`: the “hERG current change (%, negative = inhibition) at 1uM” value is reported as 13.5%.

With `O=C1/C(=C\c2cccnc2)CN(Cc2ccccc2)C/C1=C\c1cccnc1`, the “hERG current change (%, negative = inhibition) at 1uM” value stood at 1.76%.

Turning to `COc1ccc(CCC(C)NCC(C)c2ccccc2)cc1` (stereo not drawn), the “hERG current change (%, negative = inhibition) at 1uM” value is on record as -9.93%.

Take `Br.Cc1nnc2n1N=C(c1ccccc1)CS2`: the “hERG current change (%, negative = inhibition) at 1uM” value is on record as 11.3%.

Consider `Cn1c(=O)n(Cc2ccccc2Br)c2ccccc21`, for which the “hERG current change (%, negative = inhibition) at 1uM” value stood at 9.48%.

`O=C(Nc1nc2ccccc2[nH]1)c1cc2ccccc2o1`: the “hERG current change (%, negative = inhibition) at 1uM” value is on record as -1.5%.

Turning to `O=[N+]([O-])c1ccc(CN2CCSCC2)cc1`, the “hERG current change (%, negative = inhibition) at 1uM” value is given as 7.91%.

Turning to `C=CCN(c1ccccc1)S(=O)(=O)c1cccc(C(=O)Nc2ccncc2)c1`, the “hERG current change (%, negative = inhibition) at 1uM” value is listed as -12%.

As for `Cc1ccccc1C(=O)NCCCn1ccnc1`, the “hERG current change (%, negative = inhibition) at 1uM” value turned out to be 14.3%.

Turning to `CC(C)(C)c1ccc(/C=N/Nc2cccc(C(=O)O)c2)cc1`, the “hERG current change (%, negative = inhibition) at 1uM” value came to 19.3%.

With `COc1ccc(S(=O)(=O)N(Cc2cccnc2)Cc2cc3ccccc3[nH]c2=O)cc1`, the “hERG current change (%, negative = inhibition) at 1uM” value was determined as 4.09%.

Regarding `O=C(NC1CC1)C1=C[C@@H](c2ccc(Br)cc2)C[C@@H](OCc2ccc(CO)cc2)O1`, the “hERG current change (%, negative = inhibition) at 1uM” value is listed as -1.49%.

`Cc1cc(C)n(-c2cc(N3CCN(S(=O)(=O)c4ccc5ccccc5c4)CC3)ccc2[N+](=O)[O-])n1`: the “hERG current change (%, negative = inhibition) at 1uM” value is recorded as -2.43%.

For the molecule `CC1CC(=O)Nc2ccccc2N1C(=O)Nc1ccc(F)cc1` (stereo not drawn), the “hERG current change (%, negative = inhibition) at 1uM” value is recorded as 9.77%.

As for `CN(C)C(=O)N1CCNCC1.Cl`, the “hERG current change (%, negative = inhibition) at 1uM” value worked out at 11.8%.

Consider `Cc1ccc(S(=O)(=O)N2CCN(C(=O)COc3ccc(-c4nnco4)cc3)CC2)cc1`, for which the “hERG current change (%, negative = inhibition) at 1uM” value came to 12%.

Turning to `c1ccc2sc(NC3=NCN(CC4CCCO4)CN3)nc2c1` (stereo not drawn), the “hERG current change (%, negative = inhibition) at 1uM” value is on record as 7.45%.

In the case of `C#CCOCCOCCOCCNc1nc(N2CCN(C(=O)[C@H]([C@@H](C)CC)n3cc([C@@H](N)CO)nn3)CC2)nc(N2CCN(C(=O)[C@H]([C@@H](C)CC)n3cc([C@@H](N)CC(C)C)nn3)CC2)n1.Cl`, the “hERG current change (%, negative = inhibition) at 1uM” value stood at 11.5%.

As to `CC(C)[C@H](NC(=O)c1ccc(Cl)c([N+](=O)[O-])c1)C(=O)O`, the “hERG current change (%, negative = inhibition) at 1uM” value amounted to 8.48%.

For the molecule `C(#CC1CCCCC1)c1ccc2c(c1)COc1c3ccccc3nn1-2`, the “hERG current change (%, negative = inhibition) at 1uM” value came out at 9.17%.

Turning to `CC(NC(=O)Nc1ccc(Cl)cc1)c1ccc2c(c1)OCO2` (stereo not drawn), the “hERG current change (%, negative = inhibition) at 1uM” value was found to be 14.1%.

Consider `COc1cccc(/C=C2\SC(=S)N(CC3CCCO3)C2=O)c1` (stereo not drawn), for which the “hERG current change (%, negative = inhibition) at 1uM” value is listed as 10.9%.

For `CCc1ccc(NC(=O)CSc2nnc(-c3cccs3)n2CC)cc1`, the “hERG current change (%, negative = inhibition) at 1uM” value is reported as -25.7%.

`CCC(C)NC(=O)C1CCN(c2nc(OC)nc(OC)n2)CC1` (stereo not drawn): the “hERG current change (%, negative = inhibition) at 1uM” value was 0.0913%.

With `O=C(CSc1ccc(-c2cccs2)nn1)Nc1ccccc1`, the “hERG current change (%, negative = inhibition) at 1uM” value is reported as -17.8%.

Consider `Nn1cnn(Cc2ccccc2)c1=S`, for which the “hERG current change (%, negative = inhibition) at 1uM” value stood at 11.6%.

`N#Cc1nc(-c2cccs2)oc1NCCc1ccccc1`: the “hERG current change (%, negative = inhibition) at 1uM” value was 14.3%.

Take `CCc1nnc(NS(=O)(=O)c2ccc(NC(=O)/C=C/c3ccc(F)cc3)cc2)s1`: the “hERG current change (%, negative = inhibition) at 1uM” value was 5.35%.

For `O=[N+]([O-])c1ccc(C2=Nn3cnnc3SC2)cc1`, the “hERG current change (%, negative = inhibition) at 1uM” value was -7.44%.

With `Cc1oc(C(=O)O)cc1COc1ccccc1Cl`, the “hERG current change (%, negative = inhibition) at 1uM” value stood at 6.57%.

For `CCN(CCCNC(=O)C1CCN(S(=O)(=O)CC)CC1)c1cccc(C)c1`, the “hERG current change (%, negative = inhibition) at 1uM” value is -8.2%.

For the molecule `COc1ccc(CNC(=O)COC(=O)CN2C(=O)C(C)Oc3ccc(C)cc32)cc1` (stereo not drawn), the “hERG current change (%, negative = inhibition) at 1uM” value is 9.75%.

For the molecule `CCN(CC)c1ccc(/C=N\N2CCN(Cc3ccc(C)cc3)CC2)cc1`, the “hERG current change (%, negative = inhibition) at 1uM” value was 12.9%.

As for `Cn1c(CNC(=O)CNS(=O)(=O)c2ccc(Br)cc2)cc(=O)n(C)c1=O`, the “hERG current change (%, negative = inhibition) at 1uM” value was determined as 12.6%.

Take `Cc1cc(N2C(=O)C(=O)/C(=C(/O)c3ccccc3)C2c2cccc(Br)c2)no1` (stereo not drawn): the “hERG current change (%, negative = inhibition) at 1uM” value worked out at 3.48%.

As to `COc1ccc(CN(CC(=O)NC2CCCCC2)C(=O)CCC(=O)Nc2nccs2)cc1`, the “hERG current change (%, negative = inhibition) at 1uM” value was determined as 12.8%.

With `Cc1ccc(CN2CC(=O)N3[C@H]4c5cc(Cl)ccc5OC[C@@H]4[C@H](c4ccccc4)[C@]3(C)C2=O)cc1`, the “hERG current change (%, negative = inhibition) at 1uM” value is given as 8.54%.

Turning to `Cc1cccc(Cn2nc(C(C)(C)C)cc2C(=O)Nc2ccc(F)cc2)c1`, the “hERG current change (%, negative = inhibition) at 1uM” value is reported as 12%.

As for `CCCSc1nsc(N)n1`, the “hERG current change (%, negative = inhibition) at 1uM” value was -3.27%.

As for `Nc1nnc(Cc2ccc(Cl)cc2Cl)s1`, the “hERG current change (%, negative = inhibition) at 1uM” value is reported as 10.5%.

The record behind these values is PMC4336329 (PLoS ONE, 2015).
